Test results taken from the supplement of paper PMC3334620.
Over roughly 33,000 sequences, “E-score (-0.5 to 0.5)” has its median near -0.012; the highest 2% begin near 0.27. This is one part of the list.

target: T1, Vhr1 (UniProt P40522); assay: PBM E-score (8-mer binding enrichment) (E-score (-0.5 to 0.5)); higher = stronger / more preferred TF binding; most listed sequences are background and not binding sites; details: protein concentration: 200 nM; construct: GST-full length
T1 sequence: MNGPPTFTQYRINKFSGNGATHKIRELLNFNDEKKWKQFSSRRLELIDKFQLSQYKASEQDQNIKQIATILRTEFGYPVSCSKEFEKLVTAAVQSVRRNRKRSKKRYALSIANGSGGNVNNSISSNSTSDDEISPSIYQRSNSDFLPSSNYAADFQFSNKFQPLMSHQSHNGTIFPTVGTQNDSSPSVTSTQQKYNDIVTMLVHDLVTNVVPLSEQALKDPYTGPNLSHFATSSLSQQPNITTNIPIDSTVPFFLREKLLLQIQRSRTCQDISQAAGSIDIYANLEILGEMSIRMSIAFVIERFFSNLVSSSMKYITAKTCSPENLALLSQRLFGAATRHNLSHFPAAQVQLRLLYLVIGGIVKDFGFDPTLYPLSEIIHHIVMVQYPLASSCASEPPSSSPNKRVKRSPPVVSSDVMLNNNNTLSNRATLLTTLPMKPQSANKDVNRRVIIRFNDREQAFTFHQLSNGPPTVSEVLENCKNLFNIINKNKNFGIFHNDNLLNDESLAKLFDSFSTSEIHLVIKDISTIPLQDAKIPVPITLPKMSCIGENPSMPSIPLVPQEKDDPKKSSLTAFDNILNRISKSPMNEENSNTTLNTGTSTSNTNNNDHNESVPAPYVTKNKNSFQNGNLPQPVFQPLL
How it was run: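 Full-length yeast transcription factors or their DNA-binding domains, GST-tagged and expressed with PURExpress, were applied at about 100-200 nM to universal all-10-mer Agilent arrays. These arrays had been made double-stranded by primer extension on fresh or once-stripped slides. Detection used fluorescent anti-GST, normalisation used masliner, and E-scores for ungapped eight-base words pooled with reverse complements came from the Universal PBM Analysis Suite.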

Row | Sequence | PBM E-score
1 | CGGATAAA | 0.00446
2 | CCCGACTA | 0.206
3 | TATTGGAA | -0.313
4 | ACTTTACA | 0.0981
5 | AGGCTCGG | -0.0702
6 | ATTGCCGG | -0.162
7 | CAGCGCAC | -0.152
8 | CGCTCTAC | -0.0251
9 | ATTACCCG | -0.0973
10 | ATGCTTCC | -0.023
11 | ACACGGCA | -0.0102
12 | CTCCGCTC | 0.0398
13 | ACACCTGA | 0.23
14 | ACAGGCAG | 0.139
15 | GTTAGCGA | -0.0989
16 | AAGGAATC | -0.0238
17 | CACTGACA | 0.0987
18 | CTGTTCAC | 0.0692
19 | CATCAATG | 0.0555
20 | CTCCGGTA | -0.0727
21 | AAAGTCTG | -0.307
22 | TCAGCTCA | 0.135
23 | GTTGTGCA | -0.0995
24 | AACTTCGT | -0.154
25 | CCCACCCG | 0.382

Row | Sequence | PBM E-score
26 | GTTTTTGA | -0.00048
27 | ATGTACTC | -0.0243
28 | ACCCAATG | 0.0548
29 | ACGGCATC | -0.115
30 | GCCTTCTA | -0.234
31 | AGCCTCAA | -0.244
32 | ACCTTATC | -0.0284
33 | AAGACGGT | -0.229
34 | CCGGTGGC | -0.0116
35 | TTAACTAA | 0.082
36 | AACCTGGG | -0.203
37 | GCAAAGTA | 0.0726
38 | TCCCCACA | -0.229
39 | AAGGTTGT | -0.0894
40 | CCCGCACA | 0.0842
41 | GCTTCCAA | -0.269
42 | ACGGATCA | 0.205
43 | CCGGTATA | 0.0882
44 | AAATTCTA | -0.276
45 | GCTTTGCC | -0.247
46 | AGCGGCGA | 0.0783
47 | AGTCAATA | 0.161
48 | CTTCTATA | -0.143
49 | CATACGAG | 0.112
50 | AATACCCT | -0.0923

Row | Sequence | PBM E-score
51 | GCGCAGGA | 0.0795
52 | CCTTACCC | 0.0142
53 | AAAGCTTG | -0.161
54 | GGGTTCTA | -0.145
55 | AAAAGCCC | -0.186
56 | AGTGAGGA | 0.114
57 | AAGGCAGG | -0.0817
58 | AACGTGAG | -0.11
59 | CAGCCAAC | -0.117
60 | CTATATAA | 0.0181
61 | CAGAACTG | 0.153
62 | AATATTCT | -0.0298
63 | AGCGGTAT | 0.0378
64 | CGGACCCA | 0.0185
65 | ATTCCTAG | 0.0815
66 | ACGGCTTG | -0.115
67 | CGGTGTGC | -0.103
68 | ACTGTACA | 0.0947
69 | TAAAAAAA | -0.164
70 | GGTTGAGA | 0.0221
71 | TATCTGGA | -0.0728
72 | ACTTCTAC | -0.075
73 | CGCCGACA | 0.0419
74 | CACGCCGC | -0.112
75 | AGCGTGTC | 0.0732

Row | Sequence | PBM E-score
76 | AAAGGCGA | -0.227
77 | GGCGCTAC | -0.192
78 | ACACGGTG | 0.118
79 | CGGATCGA | 0.039
80 | CCAACCCA | 0.0301
81 | ATTCAGGC | 0.0614
82 | CCACGGTC | -0.073
83 | ACGACCAT | -0.0244
84 | AGGTCAAT | -0.027
85 | GTGCATCA | 0.00352
86 | AGAGCGTC | -0.252
87 | GGCAGCTA | 0.109
88 | ATACATTG | 0.0517
89 | ATGTAGGC | -0.0432
90 | AGGCAACA | -0.11
91 | AGGCGGAA | -0.18
92 | GGGCGGTA | -0.0437
93 | TCGCACAA | -0.0435
94 | TCGCTGAA | 0.0432
95 | ATAAGTGG | 0.107
96 | AACGTGCG | -0.145
97 | CTACTTCA | -0.134
98 | CGCACCAC | 0.0664
99 | CGAATTAG | -0.0167
100 | GCGGACTA | 0.0162

Row | Sequence | PBM E-score
101 | CACCTTCG | -0.0644
102 | GGGTATAC | 0.0585
103 | ACCAGGAT | 0.201
104 | CCTCCGGC | -0.0235
105 | CTATATGA | 0.186
106 | TCCTGACA | 0.107
107 | ACACCAAT | 0.218
108 | ATTATAGG | 0.0514
109 | AAACCAAC | -0.16
110 | CAAGTGCA | -0.223
111 | AATTACAC | -0.0469
112 | ATCGTATA | 0.0333
113 | GCAATTAC | -0.0408
114 | TAATCAAA | 0.101
115 | AAACCTAT | -0.214
116 | CAATAAGG | -0.264
117 | ACTGACCA | -0.0638
118 | ATGGCGGC | 0.0438
119 | CCTCTACG | -0.223
120 | GCAGATCA | -0.0544
121 | AACAACAC | 0.164
122 | AAGAGACT | -0.187
123 | CCATTCGG | 0.00792
124 | CTCGGTAA | -0.0875
125 | AGATATCT | 0.103

Row | Sequence | PBM E-score
126 | AGATGGGC | -0.0228
127 | TAGTAATA | 0.191
128 | ACTACCAT | 0.278
129 | ACTAGGGA | -0.15
130 | AAGCTTAT | -0.232
131 | CGAACCCG | 0.025
132 | CAATAGGA | -0.193
133 | ACAAACGC | -0.0485
134 | ACGCCGAA | 0.0473
135 | CGAAACCA | 0.14
136 | ACCGATAT | 0.0122
137 | CATCAATA | 0.0775
138 | AACATTAC | -0.0222
139 | ATACTACG | -0.0642
140 | CAGCCATC | 0.13
141 | AGCGGGCG | -0.133
142 | CAGGTCGG | -0.0228
143 | ACCACTTA | -0.0242
144 | GCAGGAGA | 0.0933
145 | CTATCCGC | 0.0611
146 | GACCCAGC | -0.0225
147 | CTTATTGA | -0.0966
148 | AATTAAAC | 0.0684
149 | CAAAGTAC | 0.0896
150 | CACGAATA | 0.066

Row | Sequence | PBM E-score
151 | AGGCTTAG | -0.163
152 | GCAAGGAA | -0.079
153 | ACCCGTAT | -0.0629
154 | GCGTCTAC | -0.312
155 | AGATTCTA | -0.114
156 | ACCAATTC | 0.116
157 | CGGCTCCA | 0.0244
158 | ATTCCGCC | -0.0421
159 | CAAACAGA | 0.0335
160 | CCAGTGCG | -0.0412
161 | CATGTTGC | 0.0935
162 | ATCTTTAG | 0.112
163 | CCACTCGG | -0.147
164 | TATACGCA | 0.126
165 | AGTCGCGC | 0.374
166 | CCGATGAC | 0.168
167 | CGTCCTGC | 0.0361
168 | CGATGACC | 0.181
169 | ACAGCGAT | -0.04
170 | AATAAGGT | -0.117
171 | ATGATAAG | 0.0266
172 | ACAAGCGT | -0.0347
173 | ATCTAGGA | -0.199
174 | CGCGAAAC | -0.0322
175 | CGTACGTA | -0.217

Row | Sequence | PBM E-score
176 | AGCGCAGA | -0.012
177 | GTTAAGTA | -0.154
178 | CTCATATA | 0.00429
179 | CGCATCCC | -0.154
180 | AATATCGA | 0.0962
181 | CAGCCGAA | -0.104
182 | CACGGGAG | -0.123
183 | ACGGGCCT | -0.224
184 | CGCCGGTA | 0.127
185 | AAACTATT | -0.0444
186 | GATCCGGC | 0.0568
187 | CTGATGCA | 0.0298
188 | ATGAATCC | 0.0842
189 | GCATTCCA | -0.177
190 | ATGGTGAA | 0.0391
191 | AAAACTAA | 0.0441
192 | AATGAACC | 0.0042
193 | ACCACCGT | 0.0748
194 | AATATTCC | 0.0742
195 | ACGGGGGG | -0.136
196 | AGCCTCAC | 0.0442
197 | CCGAATGA | 0.166
198 | CGGCGCAC | 0.111
199 | GCTCTGTA | -0.0493
200 | AGTAAAAA | -0.119

Row | Sequence | PBM E-score
201 | AGTAGGGA | -0.0322
202 | ATCTCCTC | -0.0994
203 | CTACGCTC | -0.129
204 | AAGGGTTA | -0.127
205 | ATTTTGCG | -0.0755
206 | GCGCCCCC | 0.0414
207 | CCGTCGAG | 0.114
208 | AAATAATT | 0.0111
209 | GACGCCGC | 0.0143
210 | ACCCGGCA | 0.121
211 | CCGCAATA | 0.189
212 | CAACAAAG | 0.174
213 | ACAGTACG | 0.148
214 | GATACGAA | -0.0886
215 | ATACGTTC | -0.107
216 | CAAATCGA | -0.0596
217 | GGTGCTTA | -0.189
218 | ACTCTATC | -0.0003
219 | CGTTTGAA | -0.141
